{"source": "the antibiotic and cytotoxicity screens of Wong et al. (2023)", "note": "The other results are listed elsewhere or left out.", "data": [{"tested_on": "HSkMC (human skeletal muscle cells)", "test": "cytotoxicity call (relative viability < 0.9)", "conditions": "10 µM", "values": [{"smiles": "Cc1coc(C)c1C(=O)O[C@@H]1O[C@@H](C)[C@H](O)[C@@H](O)[C@H]1O", "cytotoxicity call": "active"}, {"smiles": "CCn1cc(C(=O)N2CCN(C)CC2)c(=O)c2cc(S(=O)(=O)N(C)C)ccc21", "cytotoxicity call": "inactive"}, {"smiles": "CC(C)CCCC(C)C1CCC2C3CCC4CC(=O)CCC4(C)C3CCC12C", "note": "(stereo unspecified)", "cytotoxicity call": "inactive"}, {"smiles": "C[C@@H]1CN([C@H](C)CO)C(=O)Cc2cc(NC(=O)Nc3ccc(C(F)(F)F)cc3)ccc2O[C@H]1CN(C)Cc1ccc2c(c1)OCO2", "cytotoxicity call": "inactive"}, {"smiles": "COCCN1CCC(CN)CC1", "cytotoxicity call": "inactive"}, {"smiles": "C=C1CCC(O)CC1=CC=C1CCCC2(C)C1CCC2C(C)C=CC(C)C(C)C", "note": "(stereo unspecified)", "cytotoxicity call": "inactive"}, {"smiles": "COc1ccccc1C#Cc1cnc2c(c1)C(=O)N([C@H](C)CO)C[C@@H](C)[C@@H](CN(C)S(=O)(=O)c1cn(C)cn1)O2", "cytotoxicity call": "inactive"}, {"smiles": "Cc1cccc(CN2CCN(C(c3ccccc3)c3ccc(Cl)cc3)CC2)c1.Cl.Cl", "note": "(stereo unspecified)", "cytotoxicity call": "inactive"}, {"smiles": "C[C@@H]1CN([C@@H](C)CO)C(=O)c2cc(NC(=O)c3ccncc3)ccc2O[C@@H]1CN(C)Cc1ccc(C(=O)O)cc1", "cytotoxicity call": "inactive"}, {"smiles": "COCC#Cc1cnc2c(c1)C(=O)N([C@@H](C)CO)C[C@@H](C)[C@@H](CN(C)S(=O)(=O)c1cccc(OC)c1)O2", "cytotoxicity call": "inactive"}, {"smiles": "CN(C)CCCNC(=O)C[C@@H]1CC[C@H]2[C@@H](COC[C@@H](O)CN2S(=O)(=O)c2ccccc2)O1", "cytotoxicity call": "inactive"}, {"smiles": "O=C(NO)c1ccc(C(=O)N/N=C/c2ccc(B(O)O)cc2)cc1", "cytotoxicity call": "inactive"}, {"smiles": "CCS(=O)(=O)NCC[C@@H]1CC[C@@H](NC(=O)C2CCOCC2)[C@H](CO)O1", "cytotoxicity call": "inactive"}, {"smiles": "CC(C)NC(=O)N(C)C[C@@H]1Oc2ccc(NC(=O)Cn3cnnn3)cc2C(=O)N([C@@H](C)CO)C[C@@H]1C", "cytotoxicity call": "inactive"}, {"smiles": "C[C@H]1CCCCO[C@H](CN(C)S(=O)(=O)c2ccc(F)cc2)[C@@H](C)CN([C@@H](C)CO)C(=O)c2cc(NS(C)(=O)=O)ccc2O1", "cytotoxicity call": "inactive"}, {"smiles": "C[C@@H]1CN([C@H](C)CO)C(=O)c2cc(NS(=O)(=O)c3ccc(F)cc3)ccc2O[C@H]1CN(C)C(=O)Nc1cccc2ccccc12", "cytotoxicity call": "inactive"}, {"smiles": "CN1C(=O)N[C@@H]2c3ccccc3O[C@@]1(COC(=O)NCCCCCC(=O)NO)[C@@H]2COC(=O)c1ccccc1", "cytotoxicity call": "inactive"}, {"smiles": "Cc1noc(C)c1S(=O)(=O)Nc1ccc2c(c1)CC(=O)N([C@@H](C)CO)C[C@@H](C)[C@H](CN(C)Cc1ccc3c(c1)OCO3)O2", "cytotoxicity call": "inactive"}, {"smiles": "C[C@H]1CN([C@@H](C)CO)C(=O)Cc2cc(NC(=O)Nc3cccc(C(F)(F)F)c3)ccc2O[C@H]1CN(C)S(=O)(=O)c1ccc(Oc2ccccc2)cc1", "cytotoxicity call": "inactive"}, {"smiles": "COc1ccc(NC(=O)Nc2cccc3c2O[C@@H](CN(C)Cc2ccc(C(F)(F)F)cc2)[C@@H](C)CN([C@H](C)CO)C3=O)cc1", "cytotoxicity call": "inactive"}, {"smiles": "C[C@@H]1CN([C@H](C)CO)C(=O)Cc2cc(NC(=O)Cc3cn(C)c4ccccc34)ccc2O[C@H]1CN(C)Cc1ccc(-c2ccccc2)cc1", "cytotoxicity call": "active"}, {"smiles": "C[C@@H]1O[C@H](O[C@@H]2[C@H](Oc3c(-c4ccc(O)cc4)oc4cc(O)cc(O)c4c3=O)O[C@H](CO[C@@H]3O[C@H](C)[C@@H](O)[C@H](O)[C@@H]3O)[C@@H](O)[C@@H]2O)[C@@H](O)[C@H](O)[C@@H]1O", "cytotoxicity call": "inactive"}, {"smiles": "C[C@@H]1CN([C@H](C)CO)C(=O)c2cccc(NC(=O)c3cnccn3)c2O[C@@H]1CN(C)Cc1ccc(C(=O)O)cc1", "cytotoxicity call": "inactive"}, {"smiles": "C[C@H]1CN([C@@H](C)CO)C(=O)c2cc(NC(=O)c3ccncc3)ccc2O[C@@H]1CN(C)Cc1ccc(C(=O)O)cc1", "cytotoxicity call": "inactive"}, {"smiles": "C[C@H](CO)N1C[C@H](C)[C@@H](CN(C)C(=O)N[C@H](C)c2ccccc2)OCc2ccccc2-c2ccccc2C1=O", "cytotoxicity call": "inactive"}, {"smiles": "CC(C)CC#Cc1ccc2c(c1)O[C@@H](CN(C)C(=O)c1ccncc1)[C@H](C)CN([C@H](C)CO)S2(=O)=O", "cytotoxicity call": "inactive"}, {"smiles": "C[C@@H]1CCCCO[C@@H](CN(C)Cc2ccc(C(=O)O)cc2)[C@H](C)CN([C@H](C)CO)C(=O)c2cc(NS(=O)(=O)c3cccs3)ccc2O1", "cytotoxicity call": "inactive"}]}, {"tested_on": "HepG2", "test": "cytotoxicity call (relative viability < 0.9)", "conditions": "10 µM", "values": [{"smiles": "C[C@H](CO)N1C[C@H](C)[C@@H](CN(C)S(C)(=O)=O)Oc2ccc(NS(C)(=O)=O)cc2CC1=O", "cytotoxicity call": "inactive"}, {"smiles": "O=C(C[C@@H]1C=C[C@@H](NC(=O)C2CCC2)[C@@H](CO)O1)NCCCN1CCOCC1", "cytotoxicity call": "inactive"}, {"smiles": "COc1cc2c(cc1OC)C(=O)OC2", "cytotoxicity call": "inactive"}, {"smiles": "Cc1noc(C)c1NC(=O)N(C)C[C@H]1Oc2ccc(NS(=O)(=O)c3ccccc3)cc2C(=O)N([C@H](C)CO)C[C@H]1C", "cytotoxicity call": "inactive"}, {"smiles": "C[C@@H]1CN([C@H](C)CO)C(=O)Cc2cc(NC(=O)CCCCCC(=O)Nc3ccccc3N)ccc2O[C@H]1CN(C)Cc1ccc(Cl)c(Cl)c1", "cytotoxicity call": "inactive"}, {"smiles": "CC(=O)Nc1c(I)cc(I)c(C(=O)O)c1I", "cytotoxicity call": "inactive"}, {"smiles": "Cn1c(S(=O)(=O)CC(N)=O)nc2ccccc21", "cytotoxicity call": "inactive"}, {"smiles": "COc1ccc(COCC23Oc4ccccc4[C@H]([C@H]2COC(=O)NCCCCCC(=O)NO)n2c(c4c(c(C(C)=O)c2=O)C(=O)N(C)C4=O)N3C)cc1", "cytotoxicity call": "inactive"}, {"smiles": "C[C@H](CO)N1C[C@H](C)[C@H](CN(C)C(=O)Nc2ccc(N3CCCCC3)cc2)OCc2cn(nn2)CCCC1=O", "cytotoxicity call": "inactive"}, {"smiles": "COCCOC(=O)N1C(=O)[C@@]2(c3cc(C#CC4(O)CCCCCC4)ccc31)[C@H](c1ccc(OCCO)cc1)N1[C@H](c3ccccc3)[C@H](c3ccccc3)OC(=O)[C@H]1[C@@H]2C(=O)N1CCCCCCC1", "cytotoxicity call": "active"}, {"smiles": "C[C@H]1CN([C@@H](C)CO)C(=O)c2cc(NC(=O)Cn3cnnn3)ccc2O[C@H]1CN(C)S(=O)(=O)c1ccccc1", "cytotoxicity call": "inactive"}, {"smiles": "C[C@@H]1CCCCO[C@H](CN(C)Cc2ccc(C(=O)O)cc2)[C@@H](C)CN([C@@H](C)CO)C(=O)c2cc(NC(=O)Nc3ccccc3)ccc2O1", "cytotoxicity call": "inactive"}, {"smiles": "Cc1coc(C)c1C(=O)O[C@@H]1O[C@@H](C)[C@H](O)[C@@H](O)[C@H]1O", "cytotoxicity call": "active"}, {"smiles": "CCn1cc(C(=O)N2CCN(C)CC2)c(=O)c2cc(S(=O)(=O)N(C)C)ccc21", "cytotoxicity call": "inactive"}, {"smiles": "CC(C)CCCC(C)C1CCC2C3CCC4CC(=O)CCC4(C)C3CCC12C", "note": "(stereo unspecified)", "cytotoxicity call": "inactive"}, {"smiles": "C[C@@H]1CN([C@H](C)CO)C(=O)Cc2cc(NC(=O)Nc3ccc(C(F)(F)F)cc3)ccc2O[C@H]1CN(C)Cc1ccc2c(c1)OCO2", "cytotoxicity call": "inactive"}, {"smiles": "COCCN1CCC(CN)CC1", "cytotoxicity call": "inactive"}, {"smiles": "C=C1CCC(O)CC1=CC=C1CCCC2(C)C1CCC2C(C)C=CC(C)C(C)C", "note": "(stereo unspecified)", "cytotoxicity call": "inactive"}, {"smiles": "COc1ccccc1C#Cc1cnc2c(c1)C(=O)N([C@H](C)CO)C[C@@H](C)[C@@H](CN(C)S(=O)(=O)c1cn(C)cn1)O2", "cytotoxicity call": "inactive"}, {"smiles": "Cc1cccc(CN2CCN(C(c3ccccc3)c3ccc(Cl)cc3)CC2)c1.Cl.Cl", "note": "(stereo unspecified)", "cytotoxicity call": "inactive"}, {"smiles": "C[C@@H]1CN([C@@H](C)CO)C(=O)c2cc(NC(=O)c3ccncc3)ccc2O[C@@H]1CN(C)Cc1ccc(C(=O)O)cc1", "cytotoxicity call": "inactive"}, {"smiles": "COCC#Cc1cnc2c(c1)C(=O)N([C@@H](C)CO)C[C@@H](C)[C@@H](CN(C)S(=O)(=O)c1cccc(OC)c1)O2", "cytotoxicity call": "inactive"}, {"smiles": "CN(C)CCCNC(=O)C[C@@H]1CC[C@H]2[C@@H](COC[C@@H](O)CN2S(=O)(=O)c2ccccc2)O1", "cytotoxicity call": "inactive"}, {"smiles": "O=C(NO)c1ccc(C(=O)N/N=C/c2ccc(B(O)O)cc2)cc1", "cytotoxicity call": "inactive"}, {"smiles": "CCS(=O)(=O)NCC[C@@H]1CC[C@@H](NC(=O)C2CCOCC2)[C@H](CO)O1", "cytotoxicity call": "inactive"}, {"smiles": "CC(C)NC(=O)N(C)C[C@@H]1Oc2ccc(NC(=O)Cn3cnnn3)cc2C(=O)N([C@@H](C)CO)C[C@@H]1C", "cytotoxicity call": "inactive"}, {"smiles": "C[C@H]1CCCCO[C@H](CN(C)S(=O)(=O)c2ccc(F)cc2)[C@@H](C)CN([C@@H](C)CO)C(=O)c2cc(NS(C)(=O)=O)ccc2O1", "cytotoxicity call": "inactive"}, {"smiles": "C[C@@H]1CN([C@H](C)CO)C(=O)c2cc(NS(=O)(=O)c3ccc(F)cc3)ccc2O[C@H]1CN(C)C(=O)Nc1cccc2ccccc12", "cytotoxicity call": "inactive"}, {"smiles": "CN1C(=O)N[C@@H]2c3ccccc3O[C@@]1(COC(=O)NCCCCCC(=O)NO)[C@@H]2COC(=O)c1ccccc1", "cytotoxicity call": "inactive"}, {"smiles": "Cc1noc(C)c1S(=O)(=O)Nc1ccc2c(c1)CC(=O)N([C@@H](C)CO)C[C@@H](C)[C@H](CN(C)Cc1ccc3c(c1)OCO3)O2", "cytotoxicity call": "inactive"}, {"smiles": "C[C@H]1CN([C@@H](C)CO)C(=O)Cc2cc(NC(=O)Nc3cccc(C(F)(F)F)c3)ccc2O[C@H]1CN(C)S(=O)(=O)c1ccc(Oc2ccccc2)cc1", "cytotoxicity call": "active"}, {"smiles": "COc1ccc(NC(=O)Nc2cccc3c2O[C@@H](CN(C)Cc2ccc(C(F)(F)F)cc2)[C@@H](C)CN([C@H](C)CO)C3=O)cc1", "cytotoxicity call": "inactive"}, {"smiles": "C[C@@H]1CN([C@H](C)CO)C(=O)Cc2cc(NC(=O)Cc3cn(C)c4ccccc34)ccc2O[C@H]1CN(C)Cc1ccc(-c2ccccc2)cc1", "cytotoxicity call": "active"}, {"smiles": "C[C@@H]1O[C@H](O[C@@H]2[C@H](Oc3c(-c4ccc(O)cc4)oc4cc(O)cc(O)c4c3=O)O[C@H](CO[C@@H]3O[C@H](C)[C@@H](O)[C@H](O)[C@@H]3O)[C@@H](O)[C@@H]2O)[C@@H](O)[C@H](O)[C@@H]1O", "cytotoxicity call": "inactive"}, {"smiles": "C[C@@H]1CN([C@H](C)CO)C(=O)c2cccc(NC(=O)c3cnccn3)c2O[C@@H]1CN(C)Cc1ccc(C(=O)O)cc1", "cytotoxicity call": "inactive"}, {"smiles": "C[C@H]1CN([C@@H](C)CO)C(=O)c2cc(NC(=O)c3ccncc3)ccc2O[C@@H]1CN(C)Cc1ccc(C(=O)O)cc1", "cytotoxicity call": "inactive"}, {"smiles": "C[C@H](CO)N1C[C@H](C)[C@@H](CN(C)C(=O)N[C@H](C)c2ccccc2)OCc2ccccc2-c2ccccc2C1=O", "cytotoxicity call": "inactive"}, {"smiles": "CC(C)CC#Cc1ccc2c(c1)O[C@@H](CN(C)C(=O)c1ccncc1)[C@H](C)CN([C@H](C)CO)S2(=O)=O", "cytotoxicity call": "inactive"}, {"smiles": "C[C@@H]1CCCCO[C@@H](CN(C)Cc2ccc(C(=O)O)cc2)[C@H](C)CN([C@H](C)CO)C(=O)c2cc(NS(=O)(=O)c3cccs3)ccc2O1", "cytotoxicity call": "inactive"}]}]}
